# Where “and” joins values, the source holds several entries; their conditions need not be identical. Equal entries are not always repeated. Whole data set: some 110,000 compounds, median “z-score” near -0.1, cut for the highest 2% near 2. The list shows a part of the results. Calls of active or inactive are those of the source.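 Rule for the calls: active = z-score in the third read window above 3 or below -3; inactive = the rest.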
# Biological target: Metabotropic glutamate receptor 8 (Rattus norvegicus) (UniProt P70579)
# Chain of UniProt P70579 (P70579 whole entry, looked up): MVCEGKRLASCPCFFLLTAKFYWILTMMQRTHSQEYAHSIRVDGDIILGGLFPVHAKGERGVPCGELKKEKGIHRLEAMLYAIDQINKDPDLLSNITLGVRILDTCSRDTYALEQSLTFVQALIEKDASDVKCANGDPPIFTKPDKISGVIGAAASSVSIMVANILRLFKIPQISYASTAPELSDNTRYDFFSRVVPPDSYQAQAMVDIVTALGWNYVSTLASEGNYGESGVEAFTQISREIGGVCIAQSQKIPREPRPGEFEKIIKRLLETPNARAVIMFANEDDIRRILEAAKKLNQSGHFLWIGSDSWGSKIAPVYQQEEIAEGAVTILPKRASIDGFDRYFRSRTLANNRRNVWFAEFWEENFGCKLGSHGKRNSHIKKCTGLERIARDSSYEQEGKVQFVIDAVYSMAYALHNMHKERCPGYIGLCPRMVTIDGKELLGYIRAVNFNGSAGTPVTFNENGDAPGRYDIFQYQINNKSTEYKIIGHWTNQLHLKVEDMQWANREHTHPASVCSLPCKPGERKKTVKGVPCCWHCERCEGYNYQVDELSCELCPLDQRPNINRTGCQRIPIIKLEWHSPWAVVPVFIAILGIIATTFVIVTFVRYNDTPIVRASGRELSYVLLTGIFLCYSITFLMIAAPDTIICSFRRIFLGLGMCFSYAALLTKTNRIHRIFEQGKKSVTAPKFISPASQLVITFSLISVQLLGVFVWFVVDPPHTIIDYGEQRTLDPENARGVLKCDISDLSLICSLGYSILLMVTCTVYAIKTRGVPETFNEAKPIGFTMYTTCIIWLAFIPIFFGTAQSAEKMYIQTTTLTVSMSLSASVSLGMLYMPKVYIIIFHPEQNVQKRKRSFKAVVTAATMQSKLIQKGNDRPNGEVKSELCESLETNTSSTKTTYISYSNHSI
# Experiment: mGluR8 Gi/Go-coupled signaling modulation – cell-based, rat, thallium flux, HTS, primary screen (AID 488969)
# Settings: HEK293 rat mGluR8, GIRK (G protein-gated inwardly rectifying potassium channel) thallium flux, FluoZin2; at 10 µM; stronger effect = higher value; submaximal glutamate (EC20) added with thallium
row,Structure (SMILES),z-score
1,COc1ccc(CNC(=O)c2cnccn2)cc1,0.391
2,O=C(NCC1CCCO1)c1coc2nc3ccccc3nc12 (stereo unspecified),-0.034
3,CCOC(=O)N1CCN(C(=O)Cn2c(=O)sc3ccccc32)CC1,0.357
4,O=c1cc(O)nc(SCc2ccccc2)n1-c1ccccc1,-0.589 and -0.489
5,O=C(NCSc1ccnc(SCNC(=O)c2ccccc2)n1)c1ccccc1,0.0913
6,COCCNC(=O)c1ccc(C(=O)C(=O)c2ccccc2)cc1,-0.189
7,O=C(Nc1ccon1)c1cccc(Cl)c1,0.0656
8,Cc1nc(CS(=O)c2ccccc2)cc(N2CCOCC2)n1 (stereo unspecified),-0.0293
9,CC(C)(C)c1csc(NC(=O)Cn2cnc3ccccc3c2=O)n1,0.0106
10,CC(=O)OCc1nc2sc(C)c(C)c2c(=O)[nH]1,0.565
11,Cc1cc(C)nc(NS(=O)(=O)c2ccc(NC(=O)c3ccc(N4C(=O)CCC4=O)cc3)cc2)n1,-0.171
12,COc1cc2c(C(=O)NCc3ccc(C)o3)cn(CC(C)C)c(=O)c2cc1OC,-0.298
13,CCCN1Cc2cccc(C(=O)NCc3cccs3)c2C1=O,-0.546
14,CN(C)S(=O)(=O)c1cccc(NC(=O)COC(=O)c2ccc([N+](=O)[O-])o2)c1,-0.334
15,Clc1cccc(-c2nc(-c3ccccn3)no2)c1,-0.35
16,CCn1c(SCC(=O)Nc2nccs2)nnc1-c1ccncc1,1.43
17,CCC(C)(C(=O)NC1CCCC1)N(C(=O)CC1NC(=O)NC1=O)c1ccc(C)cc1 (stereo unspecified),-0.192
18,COc1ccc(C2C(C(=O)NCc3cccnc3)c3cc(OC)c(OC)cc3C(=O)N2C)cc1 (stereo unspecified),0.0295
19,CCC(=O)c1ccc(OCC(O)CN2CCN(c3ccc(F)cc3)CC2)cc1 (stereo unspecified),-0.155
20,O=C(CNC(=S)NC(=O)c1cccs1)c1ccccc1,active: 6.19
21,COCCNS(=O)(=O)c1cc(-c2nn(C)c(=O)c3ccccc23)ccc1C,-0.0441
22,Cc1ccc2c(C)c(C(=O)N(Cc3cccs3)C3CCS(=O)(=O)C3)oc2c1 (stereo unspecified),-0.396
23,Fc1cccc(Nc2nc(-c3ccncc3)nc3ccccc23)c1,-0.256

row,Structure (SMILES),z-score
1,O=S(=O)(NCCO)c1cccc2cccnc12,-0.652
2,O=C1CC(C(=O)Nc2ccccc2)C2(CCCCC2)O1 (stereo unspecified),-0.333
3,Cc1ccc(C)c(N(CC(=O)NC2CCCC2)C(=O)c2cc3cc4cccc(C)c4nc3s2)c1,-0.00669
4,CCOC(=O)C1=NN(c2ccccc2)C(c2ccccc2)CC1=O (stereo unspecified),-0.374
5,COc1ccc(-c2cc(C(F)(F)F)nc(S(C)(=O)=O)n2)cc1,-0.731
6,Cn1c2ccccc2c2c(C(=O)N3CCN(c4ccccn4)CC3)cn(C3CCCC3)c(=O)c21,-0.456
7,CCOC(=O)C1CCN(C(c2cc3cc(C)cc(C)c3[nH]c2=O)c2nnnn2C2CCCCC2)CC1 (stereo unspecified),-0.0618
8,CCC1CCC2(CC1)NC(=O)N(CC(=O)Nc1cc(C)on1)C2=O (stereo unspecified),-0.158
9,Cc1cc(NC(=O)CCCN2C(=O)c3cccnc3C2=O)no1,-0.0708
10,COc1cc(/C=N/NC(=O)c2cccc([N+](=O)[O-])c2)ccc1OCc1ccccc1,-0.158
11,CC1=Nn2c(nnc2-c2ccc(F)cc2)SC1,-0.251
12,CCc1ccc(NC(=O)CO/N=C(\C)c2cc3ccccc3o2)cc1,-0.0926
13,Cc1ccccc1-n1c(=O)cc(NCc2ccc3c(c2)OCO3)[nH]c1=O,0.66
14,O=C(Cn1nnc(-c2cc(Cl)ccc2-n2cnnn2)n1)N1CCCc2ccccc21,0.0522
15,C=CCNC(=O)CN(c1cccc(Br)c1)S(C)(=O)=O,-0.0984
16,c1ccc2c(c1)nnn2Cc1nnc2sc(-c3ccc4c(c3)OCCO4)nn12,-0.428
17,O=C(CN1C(=O)c2ccccc2S1(=O)=O)NCCSCc1ccco1,-0.602
18,Brc1ccc(-c2nnc(-c3ccc4c(c3)OCO4)o2)o1,0.244
19,CCOc1cc(-c2noc(N)c2C#N)cc(OCC)c1OCC,-0.627
20,COc1ccccc1OCCCn1cc(C#N)c2ccccc21,-0.879
21,O=C(c1ccc(N2CCOCC2)nc1)N1CCCCC1,-0.222
22,COc1ccc(-c2cc(=O)[nH]c(NCc3ccccc3)n2)cc1,0.373
23,CCN(CCCNC(=O)CCNC(=O)Cn1cnc2ccccc2c1=O)c1ccccc1,0.554

row,Structure (SMILES),z-score
1,Cc1cccc(/C=N/NC(=O)C(C)Nc2cccc3ccccc23)n1 (stereo unspecified),0.282
2,N#Cc1ccccc1NC(=O)CNc1ccccc1N1CCCCC1,-0.555
3,O=C(CSc1nnc(C2COc3ccccc3O2)o1)N1CCCCC1 (stereo unspecified),1.26
4,COc1ccc(C(=O)C[n+]2ccccc2/C=N/O)cc1,-0.11
5,C=CCn1c(CCC(=O)Nc2ccc(C)c(Cl)c2)nnc1SCC(=O)Nc1ccccc1C,-0.404
6,CCNc1nc(N)nc(Oc2ccc(OCCOc3ccc(Cl)cc3Cl)nn2)n1,-0.437
7,O=C(Nc1ccccc1)N(Cc1ccccc1)Cc1ccccc1,-0.268
8,O=C(CSc1nnc(-c2ccncc2)n1Cc1ccccc1)Nc1nccs1,-0.69
9,CC(=O)N1CCN(c2nc(CC(C)C)c3c(c2C#N)CCC3)CC1,-1.22
10,O=C(C1=C[C@@H]2[C@H]3C(=O)N(c4ccccc4Cl)C(=O)[C@H]3[C@@H](C(=O)c3ccc(Cl)cc3)N2C=C1)c1ccccc1,-0.166
11,COc1ccc(Br)cc1S(=O)(=O)N(CC(=O)N1CCOCC1)c1ccccc1,0.619
12,Cc1cccc(-n2c(C)cc(/C=C3\C(=N)N4N=C(CC(C)C)SC4=NC3=O)c2C)c1,-0.0124
13,O=C(CSC1=Nc2ccccc2C2=NC(CC(=O)NCc3ccco3)C(=O)N12)NCC1CCCO1 (stereo unspecified),-0.919
14,O=C(O)CCN1C(=O)C(=C2CCCCCC2)SC1=S,0.174
15,CC1(C)Cn2c(nnc2-c2ccccc2)S1,-0.598
16,N#Cc1ccc2ccn(CC(=O)NC3CCCCC3)c2c1,-0.34
17,COc1cc2c(cc1OC)C1(CCCC1)C(N)=C2C#N,-0.0387
18,Cc1occc1-c1nnc(SCC(=O)Nc2nc3ccccc3s2)o1,-0.0715
19,COc1ccc(CN2CCCCC2C)cc1OC (stereo unspecified),0.00608
20,Cc1oc(-c2cccc(Cl)c2)nc1CN1CCC(C(=O)NCC2CCCO2)CC1 (stereo unspecified),-0.375
21,CN1CCOc2cc(S(=O)(=O)Nc3ccc(F)cc3)ccc21,-0.576
22,Cc1ccc(C(=O)C(NC(=O)c2ccco2)Nc2sc3c(c2C(N)=O)CCCC3)cc1 (stereo unspecified),-0.0556
23,O=C(Oc1cccnc1)c1ccc(Cl)cc1,0.69

row,Structure (SMILES),z-score
1,Cc1cccc(C(=O)N[C@H](C(=O)OCc2cc(=O)n3c(n2)sc2ccccc23)C(C)C)c1,-0.334
2,COc1cccc(-c2nc(NCC3CCCO3)c3ccccc3n2)c1O (stereo unspecified),-1.4
3,O=c1oc2ccccc2cc1-c1nc2c(s1)CCc1ccccc1-2,-0.0605
4,CCCc1cc(=O)n2[nH]c(-c3ccco3)nc2n1,-0.487
5,O=C(Cc1c(F)cccc1Cl)c1ccc(O)cc1O,0.0496
6,OCCN1CCN(CC(O)COc2ccc3c(c2)OCO3)CC1 (stereo unspecified),0.153
7,COc1ccc(C(NC(=O)/C=C/c2ccco2)c2ccc(OC)cc2)cc1,-0.228
8,NC(=O)c1sc2nc3c(c(-c4ccc(Cl)cc4)c2c1N)CCCC3,0.0711
9,c1csc(CCNc2ncnc3sc4c(c23)CCC4)c1,-2.7
10,Cc1cccc(OCCCSc2nc3ccc(C)cc3[nH]2)c1,-0.21
11,CCN(CC)CCNC(=O)c1ccc(CS(=O)(=O)c2ccc(Br)cc2)o1,-0.192
12,O=C(Nc1ccsc1C(=O)NC1CCCCC1)c1ccc(F)cc1,-0.191
13,COc1ccc(-c2nc(Cn3c(SCc4ccccc4F)nc4ccncc43)c(C)o2)cc1,-0.489
14,CCc1nc2c(oc3ccccc32)c(=O)[nH]1,0.0775
15,COc1ccc(-n2c(N)c(C(=O)NCc3cccnc3)sc2=S)cc1,0.463
16,CN(c1ccc(O)cc1)c1nc(-c2ccccc2)cs1,0.237
17,CCCCn1c(SCC(=O)Nc2cc(C)on2)nc2ccccc2c1=O,-1.45
18,COc1ccc(/C=C(\NC(=O)/C=C/c2ccco2)C(=O)NCCc2nc3ccccc3[nH]2)cc1,-0.23
19,NC(=O)CN1C(=O)C(O)(CC(=O)c2ccccc2O)c2ccccc21 (stereo unspecified),0.483
20,CC(C)CNC(=O)c1cccc(C(=O)NCC(C)C)c1,-0.0332
21,CN1CCN(CC(O)COc2ccc(OCC(O)CN3CCN(C)CC3)cc2)CC1 (stereo unspecified),1.63
22,CN(Cc1ccccc1)S(=O)(=O)c1ccc(OCC(=O)Nc2cccc([N+](=O)[O-])c2)cc1,-0.459
23,Cc1ccc2ccccc2c1COC(=O)c1nonc1N,-0.143

row,Structure (SMILES),z-score
1,Cc1cc(Nc2nnnn2-c2ccccc2)n(-c2ccccc2)n1,0.258
2,O=C(c1ccccc1)N(c1ccccc1)C1C=CS(=O)(=O)C1 (stereo unspecified),-0.0857
3,CC12CC(NC(=O)N1c1cccc(C(=O)NCc3ccc4c(c3)OCO4)c1)c1cc(Cl)ccc1O2 (stereo unspecified),0.369
4,C(=N\NC(=Nc1ccccc1)c1ccccn1)/c1ccccn1,-0.0731
5,Cc1ccc(NC(=O)/C(=C/c2cccs2)NC(=O)c2ccco2)c(C)c1,-0.015
6,Fc1ccc(-n2cc(-c3ccccc3)c3c(NN4CCOCC4)ncnc32)cc1,-0.464
7,C=CCN1CC(c2nc3ccccc3n2Cc2cccc3ccccc23)CC1=O (stereo unspecified),-0.17
8,Cc1onc(-c2c(Cl)cccc2Cl)c1C(=O)NCc1cccs1,-0.0151
9,CN(CC(=O)N1CCCC1)S(=O)(=O)c1cc(Cl)ccc1Cl,-0.688
10,COCCOCCOCCC(=O)NC1CC2CCC1(C)C2(C)C (stereo unspecified),0.0839
11,CC(C)Oc1ccc(C(CC(=O)O)NC(=O)c2cccs2)cc1 (stereo unspecified),0.0523
12,CCOC(=O)c1sc(NC(=O)c2cc(-c3ccccc3)nc3ccccc23)c(C#N)c1C,-0.494
13,CC(Sc1nnc2ccccn12)C(=O)Nc1ncc(Cl)cc1Cl (stereo unspecified),0.159
14,Cc1[nH]c2ccccc2c1C(=O)CSC(=S)N(C)C1CCCCC1,-0.169
15,CCOc1ccc(Nc2nc(N3CCCCC3)nc(N3CCCCC3)n2)cc1,1.13
16,O=C(CC1Nc2ccccc2NC1=O)NCC1COc2ccccc2O1 (stereo unspecified),0.612
17,CC1CN(CCCCOc2ccc(C(C)C)cc2)CC(C)O1 (stereo unspecified),0.881
18,CCCOc1ccccc1C1NC(=O)NC(C)=C1C(=O)OCCOCC (stereo unspecified),-0.0351
19,CC1(C)CC(=O)N(CC(=O)O)c2ccccc2S1(=O)=O,-0.22

# From PubChem BioAssay AID488969 (Vanderbilt High Throughput Screening Facility, 2010)
